Test results: PMC6919601, “Identification of Plasmodium dipeptidyl aminopeptidase allosteric inhibitors by high throughput screening” (PLoS ONE, 2019)
The campaign covered roughly 110,000 compounds. About 230 (0.21%) showed an effect of 50% or more. Some of the results follow.

Biological target: DPAP1 (Plasmodium falciparum, UniProt Q8IIJ9)
Experiment: primary screen, percent inhibition; read by cleavage of a fluorogenic dipeptide substrate; higher = more effect of the substance
Set-up: species or system P. falciparum D10 trophozoite lysates; single well
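Also: 30 min substrate incubation versus DMSO and 10 µM JCP410 controls.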

Sequence of DPAP1 (Q8IIJ9 whole entry, looked up): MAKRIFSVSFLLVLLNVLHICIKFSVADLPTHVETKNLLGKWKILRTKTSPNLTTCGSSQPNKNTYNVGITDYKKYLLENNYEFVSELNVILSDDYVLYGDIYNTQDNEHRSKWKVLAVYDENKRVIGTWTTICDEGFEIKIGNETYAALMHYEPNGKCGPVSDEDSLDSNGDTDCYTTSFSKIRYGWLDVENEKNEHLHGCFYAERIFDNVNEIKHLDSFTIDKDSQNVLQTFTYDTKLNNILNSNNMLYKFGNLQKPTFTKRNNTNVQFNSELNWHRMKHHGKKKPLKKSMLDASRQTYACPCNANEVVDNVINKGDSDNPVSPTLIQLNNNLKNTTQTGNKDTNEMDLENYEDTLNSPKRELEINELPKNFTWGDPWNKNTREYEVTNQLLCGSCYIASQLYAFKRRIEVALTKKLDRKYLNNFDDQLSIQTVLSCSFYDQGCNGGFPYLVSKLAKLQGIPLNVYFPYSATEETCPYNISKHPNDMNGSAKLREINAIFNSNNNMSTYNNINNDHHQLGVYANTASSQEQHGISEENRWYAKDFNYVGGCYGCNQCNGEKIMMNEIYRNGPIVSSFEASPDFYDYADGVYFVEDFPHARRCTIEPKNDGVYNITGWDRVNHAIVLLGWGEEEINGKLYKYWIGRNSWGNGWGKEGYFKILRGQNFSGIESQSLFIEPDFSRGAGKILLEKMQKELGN

SMILES	% Inhibition @ 10 uM [%]
COc1ccc(-c2noc(CSc3nnc(-c4ccncc4)n3C)n2)cc1	6.01
O=C(CCC1CCCCC1)NC1(C(F)(F)F)C(=O)Nc2c1c(=O)[nH]c(=O)n2Cc1ccccc1 (stereo not drawn)	-4.85
CCCNc1nc(N)nc(-c2cc(Cl)ccc2OC)n1	-4.86
CCOc1ccc(CCNC(=O)C2CCCN(S(=O)(=O)N3CCOCC3)C2)cc1OCC (stereo not drawn)	-1.67
O=C(CSc1nnc(-c2ccc(Cl)s2)o1)NC1CCCCC1	3.44
CCC(C)NC(=O)CN(c1ccc(F)cc1)S(C)(=O)=O (stereo not drawn)	2.03
Cc1ccc(CNC(=O)CSCc2cnn(-c3ccccc3)c2-n2cccc2)cc1	-2.85
COc1cc(CN(CC2CCCO2)C(=O)c2ccc(Br)cc2)cc(OC)c1OC (stereo not drawn)	5.54
CCOC(=O)c1c(CNCCN(CC)CC)n(C)c2cc(Br)c(O)cc12	-4.24
COc1ccc(CCNC(=O)C2=Cc3sc4c(c3CS2)CCCC4)cc1OC	13.1
CN(C(=O)NCc1noc2ccccc12)C1CCCCC1	0.0244
O=C(Nc1ccccc1-c1nc2ccccc2s1)c1ccc(F)c(F)c1	-2.15
COc1cc2c(cc1OC)C1C(C(=O)N3CCN(c4ccccn4)CC3)c3ccccc3C(=O)N1CC2 (stereo not drawn)	5.74
CCCC1=C(C(=O)OCC)C(c2ccc(Cl)c(Cl)c2)C(C#N)=C(N)O1 (stereo not drawn)	1.96
COC(=O)c1cc(S(=O)(=O)NCCc2ccc(Cl)cc2)c[nH]1	0.867
O=C(CCCN1C(=O)CSc2ncccc21)NCc1ccc(Cl)cc1	-2.37
CN(C)c1cc(NC(=O)CN2CCOCC2)c2ccccc2n1	-3.66
O=C(CN1C(=O)NC2NC(=O)NC21)NC1CCCCC1 (stereo not drawn)	-0.0735
CC(C)n1cc(NC(=O)C2=CC(c3ccco3)=NS(=O)(=O)N2C)cn1	2.32
O=C(Cn1cnc2ccccc2c1=O)Nc1cc(Cl)ccc1Oc1ccccc1	-1.22
Cc1ccc2oc(-c3ccc(N)c(C)c3)nc2c1	-1.85

SMILES	% Inhibition @ 10 uM [%]
O=C(Nc1cccnc1)C1c2ccccc2C(=O)N(C2CCCC2)C1c1cccs1 (stereo not drawn)	-2.28
COc1cccc(-n2c(C)cc(/C=C3\NC(=O)N(c4ccccc4)C3=O)c2C)c1	-3.26
COc1cccc(/C=N/n2cnnc2)c1OC	-0.339
CCCN(CCC)CCn1cnc2c3ccccc3nc-2c1O	6.31
Nc1c(Cl)cc(N2C(=O)c3ccccc3C2=O)cc1Cl	-5.41
c1ccc(OCCn2cnnn2)cc1	7.68
CCCCc1ccc(NC(=O)c2ccccc2OC)cc1	3.8
CCc1nc2ccccc2n1CC(O)COc1ccc(C(=O)O)cc1 (stereo not drawn)	2.95
Cc1cc(S(=O)(=O)N2CCN(Cc3ccccc3)CC2)c(Cl)cc1Cl	2.26
CCCN(Cc1ccc(O)cc1)CC1CC1	0.0792
O=C1C2CC=CCC2C(=O)N1c1cccc(Cl)c1 (stereo not drawn)	-3.5
c1ccc2cc(CN3CCc4c([nH]c5ccccc45)C3)ccc2c1	1.48
O=C(C1CCN(S(=O)(=O)c2c[nH]cn2)CC1)N1CCN(Cc2ccc3c(c2)OCO3)CC1	1.23
C=CCOc1cccc(C2C(C(=O)c3ccc(F)cc3)=C(O)C(=O)N2Cc2cccnc2)c1 (stereo not drawn)	-8.06
CCOc1cc(C2Nc3ccccc3N=C3CC(C)(C)CC(O)=C32)ccc1O (stereo not drawn)	-2.56
Cn1cnnc1SCC(=O)Nc1nc2ccccc2s1	-2.87
Cc1ccc(CNC(=O)C(Cc2ccccc2)NS(=O)(=O)c2cccc3cccnc23)cc1 (stereo not drawn)	0.981
Cc1nc2c(-c3ccccc3)c(Cc3ccccc3)nn2c(O)c1Cl	3.32
Cn1nc(-c2ccccc2)c2c(C(=O)C(F)(F)F)cc(C(=O)C(F)(F)F)c-2c1-c1ccccc1	-8.22
Cc1cc(NC(=O)c2cc(-c3ccccc3C)nc3ccccc23)no1	3.86
COc1cc(C2C3=C(O)CCCC3=NC(C)=C2C(=O)Nc2cccc(C)n2)cc(OC)c1OC (stereo not drawn)	4.11

SMILES	% Inhibition @ 10 uM [%]
Cc1sc(NC(=O)C2C3C=CC(C3)C2C(=O)O)c(C#N)c1-c1ccc(C(C)C)cc1 (stereo not drawn)	-0.413
O=C(Nc1cc(O)nc(O)n1)c1cccc2ccccc12	-3.37
CCCN(CCC)C(=O)Cc1coc2ccc3ccccc3c12	-1.43
CCOC(=O)N1CCN(CC(O)COc2ccc(C(C)C)c(C)c2)CC1 (stereo not drawn)	-6.3
COC(=O)c1c(NC(=O)c2cc(OC)c(OC)c(OC)c2)sc(C)c1C	22.8
CC(C)C[C@@H](/C=C/S(C)(=O)=O)NC(=O)[C@H](C)NC(=O)C(c1ccccc1)c1ccccc1	0.079
COc1ccc(CCNC(=O)c2cc(=O)c3ccc(C)c(C)c3o2)cc1OC	-11
O=C1S/C(=C/c2ccc(OCCO)cc2)C(=O)N1CN1CCN(c2ccc(F)cc2)CC1	-8.67
Cc1onc(-c2ccccc2)c1C(=O)Nc1nnc(N(CC(C)C)CC(C)C)s1	3.29
O=C1C(Cl)=C(Nc2cccc(O)c2)C(=O)N1c1ccccc1	4
COCCNC(=O)CSCc1nc(-c2ccc(C)cc2)oc1C	-4.71
Cc1ccc2oc(C(=O)NCc3ccccc3)cc(=O)c2c1	-1.47
CCON(C(=O)OC)c1c(F)c(F)c(N(OCC)C(=O)OC)c(F)c1F	-2.53
Cc1cc(C)c(NC(=O)C(C)SCC(=O)Nc2ccccc2)c(C)c1 (stereo not drawn)	0.83
CCc1nc2ccc(C(=O)NCc3ccccn3)cc2nc1CC	2.77
CC(C)c1ccc(OCC(=O)Nc2ccc(N3CCN(C)CC3)cc2)cc1	3.29
Cc1ccc(Sc2ccncc2S(=O)(=O)NC(=O)NC2CCCCC2)cc1	-5.21
O=C(C1=CSCCO1)N1CCc2ccccc2C1	3.3
CC(C)CC(NCCC(O)c1ccccc1)C(=O)O (stereo not drawn)	-5.11
COc1cc(OC)c(OC)cc1/C=C1\N=C(c2ccc(Cl)c(Cl)c2)OC1=O	-7.76
Cc1cc2c(n1-c1ccc(C(=O)NCC3CCCO3)cc1)CCC(C)C2 (stereo not drawn)	-1.68
